# Data reported in PubChem BioAssay (NCATS).
# For part of these data: “Side channel” marks fits to a control or component signal instead of the main read-out. Calls of active or inactive are those of the source. Unless noted, calls come from the whole dose curve; as a rule, active = well fitted curve in the direction sought with a large enough effect; inconclusive = small, poorly fitted or top-dose-only effect, or another doubt; inactive = no such curve, though single readings can be large; an effect the other way counts as inactive or inconclusive.
# Tests used:
# [1] = Cell Viability - BJ (AID 421; calls by dose curve;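 note: potency is the fitted concentration of half-maximal effect; cells exposed to compound for 40 hours at 37 °C before readout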); conditions: BJ fibroblast viability, qHTS
# In short: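 Cytotoxicity as drop in intracellular ATP (CellTiter-Glo, 20 min RT) after 40 hr compound exposure of BJ fibroblasts at 37 °C. Titrations scaled between DMSO and 100 uM tamoxifen, Hill-fitted for AC50.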
# [2] = Cell Viability - Hek293 (AID 427;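 active = compounds whose dose-response curve shows a full or clear partial loss of cell viability, called from curve shape rather than a numeric limit; inconclusive = weak partial curves or an effect only at the top dose; inactive = no dose-dependent loss of viability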;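 note: potency is the fitted concentration of half-maximal effect; cells exposed to compound for 40 hours at 37 °C before reading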); conditions: qHTS
# In short: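 Luminescent ATP content (CellTiter-Glo, 20 min at room temperature) was measured after a 40 hr, 37 °C compound exposure of HEK293 cells. AC50 values came from Hill-equation fits of qHTS concentration-response data normalized to DMSO and 100 uM tamoxifen.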
# [3] = Cell Viability - N2a (AID 540); conditions: N2a mouse neuroblastoma cell viability; activity change, negative = cytotoxicity: at 92.2 µM (top of the series); note: potency is the fitted concentration of half-maximal effect; nearly all actives have a fitted effect of over 45% in size
# In short: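 Luminescent ATP signal (CellTiter-Glo, 20 min at room temperature) served as the viability read-out after N2a cells were treated with compounds for 40 hours at 37 °C. Concentration-response data were fitted to the Hill equation for AC50.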
# [4] = Cell Viability - NIH 3T3 (AID 541); conditions: NIH 3T3 cell viability, qHTS; activity change, negative = cytotoxicity: at 92.2 µM (top of the series); note: potency is the fitted concentration of half-maximal effect; nearly all actives have a fitted effect of over 25% in size
# In short: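 Luminescent ATP signal (CellTiter-Glo) served as the viability read-out after NIH 3T3 cells were exposed to compounds over a concentration range for 40 hr at 37 °C. Hill-equation modelling of concentration-response data gave AC50.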
# [5] = Cell Viability - Renal Proximal Tubule (AID 545); conditions: renal proximal tubule cells viability; activity change, negative = cytotoxicity: at 91.7 µM (top of the series) unless noted; note: potency is the fitted concentration of half-maximal effect; nearly all actives have a fitted effect of over 40% in size
# In short: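 Viability taken as intracellular ATP (CellTiter-Glo luminescence) after 40 hr, 37 °C compound treatment of primary proximal tubule cells from rat kidney, 1000 cells/well; Hill-equation fits of qHTS concentration-response data gave AC50.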
# [6] = Cellular Toxicity (caspase-3) Jurkat (AID 655); conditions: Jurkat caspase-3 activation, luminescence; caspase-3 activation: at 92.2 µM (top of the series), DMSO = 0%, tamoxifen = 100%;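 note: cells exposed to compound for 16 h at 37 °C before reading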
# In short: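 Luminescent Caspase-Glo 3/7 read-out (20 min, room temperature) after 16 h compound treatment at 37 C of 5000 Jurkat cells per well. AC50 derived by Hill-equation fitting, scaled between DMSO basal and 100 uM tamoxifen stimulation.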
# [7] = MultiTox-Fluor Cytotoxicity Assay - LYMP1-001 - Dead Cells (AID 946); conditions: LYMP1-001 lymphoblastoid cells, dead-cell protease fluorescence; cytotoxicity (dead cells): at 92.2 µM (top of the series); note: potency is the fitted concentration of half-maximal effect
# In short: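 Cytotoxicity as increased dead-cell protease fluorescence (bis-AAF-R110, 485/520 nm), read 60 min after MultiTox-Fluor reagent. Human lymphoblastoid line exposed 16 h; Hill-fitted AC50, with DMSO as 0% and 15 uM tetraoctylammonium bromide as 100%.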
# [8] = MultiTox-Fluor Cytotoxicity Assay - LYMP1-001 - Live Cells (AID 947); conditions: LYMP1-001 lymphoblastoid cells, live-cell protease fluorescence viability; series mostly up to 92.2 µM; note: potency is the fitted concentration of half-maximal effect
# [9] = MultiTox-Fluor Cytotoxicity Assay - LYMP1-002 - Live Cells (AID 955); conditions: LYMP1-002 lymphoblastoid live-cell protease fluorescence viability; series mostly up to 46.1 µM;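 note: potency is the fitted concentration of half-maximal effect; cells exposed to compound for 16 hours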
# In short: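 Read-out is live-cell protease activity (cell-permeant GF-AFC substrate, fluorescence Ex/Em=405/510), where a decrease indicates acute toxicity. Human lymphoblastoid cells were treated 16 hours at 37 C in a concentration series, and AC50 values came from standard Hill modelling.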
# [10] = MultiTox-Fluor Cytotoxicity Assay - LYMP1-002 - Dead Cells (AID 960); conditions: LYMP1-002 lymphoblastoid cells, dead-cell protease fluorescence; cytotoxicity (dead cells): at 46.1 µM (top of the series); note: potency is the fitted concentration of half-maximal effect; nearly all actives have a fitted effect of over 60% in size
# In short: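 LYMP1-002 cells 2500/well; 5 hr 37 C pre-incubation; compound 16 hr 37 C; MultiTox-Fluor reagent 60 min RT; dead-cell fluor Ex/Em 485/520. Norm. to DMSO (0%) vs 15 uM tetraoctylammonium bromide (100%); Hill AC50.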
# [11] = Cell Viability - LYMP2-004 (AID 966); conditions: LYMP2-004 lymphoblastoid cell viability, qHTS; activity change, negative = cytotoxicity: at 92.2 µM (top of the series); note: potency is the fitted concentration of half-maximal effect; nearly all actives have a fitted effect of over 65% in size
# In short: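 Cells seeded 2500/well, rested 5 hr at 37 C, dosed across a concentration series, incubated 24 hr at 37 C, then CellTiter-Glo added for 30 min at room temperature and luminescence read. Hill fitting gave AC50.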
# [12] = Cell Viability - LYMP2-005 (AID 967); conditions: LYMP2-005 lymphoblastoid cell viability; series mostly up to 92.2 µM; note: potency is the fitted concentration of half-maximal effect
# In short: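 LYMP2-005 human lymphoblastoid cells (2500/well) were treated with compounds for 24 h at 37 C. Intracellular ATP was then measured by CellTiter-Glo luminescence after 30 min at room temperature. AC50 values came from Hill-equation fits of qHTS concentration-response data.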
# [13] = Cell Viability - LYMP2-011 (AID 969); conditions: LYMP2-011 lymphoblastoid cells viability; viability change, negative = cytotoxic: at 92.2 µM (top of the series); note: potency is the fitted concentration of half-maximal effect; nearly all actives have a fitted effect of over 60% in size
# In short: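 2500 cells/well, 5 hr 37 C; compound added, 24 hr 37 C; CellTiter-Glo 30 min RT; luminescence. qHTS concentration-response, Hill-equation AC50. Tetraoctylammonium bromide positive control.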
# [14] = Cell Viability - LYMP2-025 (AID 976); conditions: LYMP2-025 lymphoblastoid cell viability; activity change, negative = cytotoxicity: at 92.2 µM (top of the series); note: potency is the fitted concentration of half-maximal effect
# In short: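 Seed 2500 LYMP2-025 cells/well; 5 hr at 37 C; add compound; 24 hr at 37 C; add CellTiter-Glo; 30 min RT; read luminescence. AC50 from Hill-modelled concentration-response.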
# [15] = Cell Viability - LYMP2-010 (AID 981); conditions: LYMP2-010 lymphoblastoid cell viability, qHTS; series mostly up to 92.2 µM; note: potency is the fitted concentration of half-maximal effect; nearly all actives have a fitted effect of over 55% in size
# In short: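 Luminescent ATP signal (CellTiter-Glo) served as the viability read-out. Cells of the human lymphoblastoid line were treated with compound over a concentration range for 24 hours at 37 C, and AC50 values came from Hill-equation modeling.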
# [16] = Cell Viability - LYMP2-012 (AID 982); conditions: LYMP2-012 lymphoblastoid cell viability qHTS; series mostly up to 92.2 µM;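 note: cellular ATP by luciferase luminescence where a drop means cytotoxicity; potency is the fitted concentration of half-maximal effect; cells exposed to compound for one day before reading; nearly all actives have a fitted effect of over 55% in size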
# [17] = Cell Viability - LYMP2-014 (AID 983); conditions: LYMP2-014 lymphoblastoid cells, viability qHTS; activity change, negative = cytotoxicity: at 92.2 µM (top of the series); note: potency is the fitted concentration of half-maximal effect; nearly all actives have a fitted effect of over 50% in size
# In short: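 Luminescent ATP signal (CellTiter-Glo, 30 min at room temperature) serves as the viability read-out after 24 hr compound exposure at 37 C. Cells were seeded at 2500 per well and settled 5 hr beforehand.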
# [18] = Cell Viability - LYMP2-020 (AID 986); conditions: series mostly up to 92.2 µM; note: potency is the fitted concentration of half-maximal effect; nearly all actives have a fitted effect of over 55% in size
# In short: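 Luminescent ATP signal (CellTiter-Glo, 30 min at room temperature) is the read-out after 24 h compound treatment of lymphoblastoid cells at 37 C. AC50 values come from Hill-equation fits across concentrations.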
# [19] = Cell Viability - LYMP2-024 (AID 988); conditions: LYMP2-024 lymphoblastoid cell viability; series mostly up to 92.2 µM; note: potency is the fitted concentration of half-maximal effect; nearly all actives have a fitted effect of over 60% in size
# In short: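 Steps: seed 2500 cells/well, 5 hr 37 C; add compound, 24 hr 37 C; add CellTiter-Glo, 30 min room temperature; read luminescence. AC50 derived by Hill modelling of concentration-dependent ATP loss.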
# [20] = qHTS Assay for Identification of Small Molecule Inducers of Hypoxia Response (AID 2120; active = well fitted curve in the direction sought with a large enough effect in the signal ratio, with a control signal flat, not every such curve was filed as active; inconclusive = small, poorly fitted or top-dose-only effect, or a change in a side signal; inactive = no such curve, though single readings can be large or run the other way; the % refers to the signal ratio; note: potency is the fitted concentration of half-maximal effect); conditions: hypoxia response reporter cells, beta-lactamase ratio readout; activation: at 104 µM (top of the series)
# In short: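 ME-180 HRE-bla cells plated in Opti-MEM/0.5% dialyzed FBS, rested 4-5 h, then dosed with compound titrations by pin tool. After 17 h at 37 degrees C, CCF4 dye loaded 2.5 h at RT; 460/530 nm ratio gave %Activity and AC50.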
# [21] = target: Estrogen receptor (Homo sapiens) (UniProt P03372); experiment: qHTS assay for small molecule antagonists of estrogen receptor alpha signaling (AID 588513; active = well fitted curve in the direction sought with a large enough effect in the signal ratio, with a control signal flat, not every such curve was filed as active; inconclusive = small, poorly fitted or top-dose-only effect, or effect the other way, or a change in a side signal; inactive = no such curve, though single readings can be large or run the other way; the % refers to the signal ratio; note: potency is the fitted concentration of half-maximal effect); conditions: ER-alpha-UAS-bla HEK293, beta-lactamase ratio, antagonist mode; activity, negative = inhibition: at 76.9 µM (top of the series)
# In short: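 Antagonist mode: inhibition of 0.5 nM 17-beta-estradiol-driven beta-lactamase reporter in HEK 293 ER-alpha-UAS-bla cells, 18 h at 37C, CCF4 readout after 2 h at RT. Normalised to estradiol and DMSO; titration fitted to Hill.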
# Tags give direction and shape of the fitted curve or compound fluorescence and quenching.
# UniProt P03372, sequence (P03372 whole entry, looked up): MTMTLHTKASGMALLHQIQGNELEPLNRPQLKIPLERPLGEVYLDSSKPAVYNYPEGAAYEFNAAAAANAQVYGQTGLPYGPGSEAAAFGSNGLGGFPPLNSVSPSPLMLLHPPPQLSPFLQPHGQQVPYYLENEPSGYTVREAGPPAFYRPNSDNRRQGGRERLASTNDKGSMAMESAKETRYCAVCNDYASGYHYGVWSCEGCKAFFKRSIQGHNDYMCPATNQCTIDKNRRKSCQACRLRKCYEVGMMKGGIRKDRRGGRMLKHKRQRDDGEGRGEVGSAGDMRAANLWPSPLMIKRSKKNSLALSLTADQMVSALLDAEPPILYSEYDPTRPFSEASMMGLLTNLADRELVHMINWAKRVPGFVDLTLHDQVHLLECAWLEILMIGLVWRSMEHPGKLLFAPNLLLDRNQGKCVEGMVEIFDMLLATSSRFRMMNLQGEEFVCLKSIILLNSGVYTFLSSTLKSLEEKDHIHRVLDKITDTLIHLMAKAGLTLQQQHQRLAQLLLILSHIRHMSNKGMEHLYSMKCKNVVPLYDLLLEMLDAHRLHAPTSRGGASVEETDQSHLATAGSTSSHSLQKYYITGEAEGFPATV
structure (smiles),measurement,setting,value
C[C@@H]1CC[C@@]2(OC1)O[C@H]1[C@@H](O)[C@H]3[C@@H]4CC[C@H]5C[C@@H](O[C@@H]6O[C@H](CO)[C@H](O[C@@H]7O[C@H](CO)[C@@H](O)[C@H](O[C@@H]8OC[C@@H](O)[C@H](O)[C@H]8O)[C@H]7O[C@@H]7O[C@H](CO)[C@@H](O)[C@H](O[C@@H]8O[C@H](CO)[C@@H](O)[C@H](O)[C@H]8O)[C@H]7O)[C@H](O)[C@H]6O)[C@H](O)C[C@]5(C)[C@H]4CC[C@]3(C)[C@H]1[C@@H]2C,Potency,[1],active: 19.9 µM
same,Potency,[2],active: 27.5 µM
same,Potency,[3],active: 31.6 µM
same,Potency,[4],active: 31.6 µM
same,Potency,[5],active: 7.94 µM
same,caspase-3 activation,[6],inconclusive: -5.4%
same,Potency,[7],"inconclusive: 3.16 µM [cytotoxic, full curve, poor fit]"
same,Potency,[8],active: 12.6 µM
same,Potency,[9],active: 3.98 µM
same,Potency,[10],"inconclusive: 3.16 µM [cytotoxic, full curve, poor fit]"
same,Potency,[11],active: 12.6 µM
same,Potency,[12],active: 15.8 µM
same,Potency,[13],active: 20 µM
same,Potency,[14],active: 25.1 µM
same,Potency,[15],active: 20 µM
same,Potency,[16],active: 15.8 µM
same,Potency,[17],active: 25.1 µM
same,Potency,[18],active: 12.6 µM
same,Potency,[19],active: 12.6 µM
same,Potency,[20],"inconclusive: 20 µM [side channel, falling, full curve]"
same,Potency,[21],active: 8.91 µM [inconclusive]
